Assay results published in the supplement of paper PMC3334620.
Whole data set: some 33,000 sequences, median “E-score (-0.5 to 0.5)” near -0.056, cut for the highest 2% near 0.38. The list shows a part of the results.

target: Stb4 (UniProt P50104); experiment: PBM E-score (8-mer binding enrichment) (E-score (-0.5 to 0.5)); higher = stronger / more preferred TF binding; most listed sequences are background and not binding sites; conditions: protein concentration: 200 nM; construct: GST-DNA-binding domain
Summary of the method: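 The E-score, a modified Wilcoxon-Mann-Whitney statistic, was computed by the Universal PBM Analysis Suite for every ungapped eight-base word pooled with its reverse complement. Scans behind it were normalised with masliner after bound GST-tagged yeast transcription factors were detected with fluorescent anti-GST. The proteins, at about 100-200 nM, had been applied to universal all-10-mer Agilent arrays made double-stranded by primer extension.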

Sequence	PBM E-score
CCGCCTGA	0.0156
ATGAGCAT	-0.0464
CAGGTTTA	0.0854
AGCGATGA	-0.0654
ATGAGAAA	-0.205
TAAGACGA	-0.263
CTGTAATC	-0.184
AGAGATCA	-0.261
ATCGAAAT	-0.0429
ACGGAACT	0.35
CAAGTTCG	0.0949
ATCGACTA	-0.21
CAAGATGA	-0.37
ACCCAAGG	0.0231
TAACGGGA	0.236
TATCAGCA	-0.165
ATATGTAA	-0.226
ATAATGGG	-0.0513
CAAGATAA	-0.11
CGGACGAC	0.164
ACTCCGTA	0.0548
AGACCAGC	-0.326

Sequence	PBM E-score
GACCGCAC	0.0279
CTTATCGC	0.0012
TGGCACCA	-0.156
ACGGTTCC	0.113
ATTGTGGG	0.00532
GCAGTCCA	-0.229
AGCGCGAT	-0.0326
GCTCCGAC	0.238
ATCTGGGC	-0.0904
ATTCTGCA	-0.176
ATGCGCCA	-0.113
AGACGTTC	-0.0788
ACCTAAAG	-0.0577
GTCAAGAC	0.00172
CCAAACCG	0.124
AGGGAGAA	-0.0826
CAACCAAA	0.0796
ACAAGTAG	-0.182
AACTCTAC	-0.138
CCACTACA	-0.284
CATTGCTA	-0.158
CCTCTTAA	-0.0505

Sequence	PBM E-score
ATTTCGCA	0.0506
AAGGTCTG	-0.102
CCAATTCG	0.077
AGTAAGCC	0.0217
AGATAAGC	-0.0828
CGTAAGTA	0.0835
CTCACATC	-0.02
CCCAAAGG	-0.118
ACGATCGG	0.246
CCTGAGAC	-0.208
CGCCGTTC	0.132
GAGCTACA	-0.033
CATATATA	0.0928
AGGGACCC	-0.0037
AGTAAAGC	0.0678
TCCTTTCA	-0.0195
AACAGGAC	-0.0941
AACCGCCG	0.22
AGACAATG	0.0133
AAATGCGC	-0.041
GTGCAATA	-0.189
AACCGTTA	-0.1

Sequence	PBM E-score
GACCCATA	-0.0346
GATAATGA	-0.00765
AGGTGTCC	-0.117
AAGAAAGT	0.0782
ACTCTATA	0.127
CATCGTAA	-0.0818
GGTCATCA	-0.197
ACTCACGC	-0.151
GACCCCTC	-0.0605
GACCACAC	-0.0281
GCGCGCGC	0.0819
GGCCCTAC	-0.0358
CCTTCTCA	-0.243
CTTTGTGA	-0.0394
ACCCGGCC	0.297
AAAGAGTA	-0.136
AGCTTTGA	-0.0782
CGGAAGTC	0.414
CCTGAAAG	-0.257
GATTGGTA	0.0149
